Results reported in PubChem BioAssay AID1345083 (National Center for Advancing Translational Sciences (NCATS), 2018).
In all, about 94,000 compounds went through this assay and about 6,200 (6.6%) were called active. Inconclusive results, whose numbers are uncertain, are shown with a selection of clear calls. Calls follow the shape of the dose curve; as a rule, active = well fitted inhibition curve with a large enough effect; inconclusive = small, poorly fitted or top-dose-only effect; inactive = flat fitted curve, though single readings scatter. Potencies beside an inconclusive call are fits to weak or partial responses and may not hold up.

Assay: Cytotoxic Profiling in HEK 293 Cell Line of Diverse Libraries Using Quantitative High-Throughput Screening; also: nearly all actives have a fitted effect of over 60% in size
Details: HEK 293 viability, ATP luminescence (CellTiter-Glo), 48-72 h; activity change, negative = cytotoxicity: at 115 µM (top of the series) unless noted; series mostly up to 115 µM
How it was run: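 HEK 293 cells seeded at 250 cells/well were exposed to compound for 48 or 72 hr at 37 degree Celsius. Viability taken as ATP content by CellTiter-Glo luminescence.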
% is scaled to controls: 0 for no effect and ±100 for the full control effect; potency is read from the fitted curve at half-maximal effect; tags tell the direction and shape of the fitted curve.

Row | SMILES | Potency | activity change, negative = cytotoxicity | outcome
1 | Cc1ccc(C(=O)NC2CCN(c3cnn(Cc4ccccc4)c(=O)c3)CC2)s1 | inconclusive: 79.4 µM [inhibitor, single point] |  | 
2 | C=CCNC(=O)N1CCC(O)(c2csc(CN3CCc4ccccc4C3)n2)CC1 | inconclusive: 126 µM [inhibitor, single point] |  | 
3 | COc1ccc(C2(C(=O)NCc3cccnc3N3CCN(C)CC3)CC2)cc1 |  | inactive: 0.358% | 
4 | c1ccc(Nc2cc3c(cn2)CN(Cc2cccs2)CCN3)cc1 | active: 50.1 µM |  | 
5 | CC(C)Cc1ccc(S(=O)(=O)N(C)CC2CCOC2)cc1 (stereo unspecified) | inconclusive: 79.4 µM [inhibitor, single point] |  | 
6 | CCc1cccc(NC(=O)Cn2c(-c3ccc(Cl)cc3)nc(C)c(CCO)c2=O)c1 | inconclusive: 39.8 µM [inhibitor, partial curve, poor fit] |  | 
7 | COc1ccc(OC)c(NC(=O)CN2C(=O)NC3(CCS(=O)(=O)CC3)C2=O)c1 |  | inactive: -2.53% | 
8 | CCCCC1CN(c2cccc(-c3ccccc3)c2)C(=O)CN1C(C)=O (stereo unspecified) | inconclusive: 89.1 µM [inhibitor, single point] |  | 
9 | CC(C)c1ccc(C(=O)N2CCC3(CC2)OC(=O)N(Cc2ccc(O)cc2)C3(C)c2ccccc2)cc1 (stereo unspecified) | inconclusive: 22.4 µM [inhibitor, full curve] |  | 
10 | CN(Cc1nc(-c2ccccc2)no1)C(=O)c1cccc(C2CCNC2)c1 (stereo unspecified) | inconclusive: 56.2 µM [inhibitor, partial curve, poor fit] |  | 
11 | Cn1nc(C2CCNCC2)c2c(C(=O)NC3CC3)cc(C3CC3)nc21 |  | inactive: 0.285% | 
12 | O=C1[C@H]2CN(Cc3cccc(Cl)c3)C[C@H]2C(=O)N1CCN1CCc2ccccc2C1 | inconclusive: 56.2 µM [inhibitor, partial curve, poor fit] |  | 
13 | Cc1cc(C)cc(C(=O)N2[C@@H]3CC[C@H]2CC(NC(=O)c2cnc(C)cn2)C3)c1 (stereo partly specified) | inconclusive: 44.7 µM [inhibitor, partial curve] |  | 
14 | CN1C(=O)C2(CCN(C(=O)c3ccc(C(F)(F)F)cc3)C2)c2ccccc21 (stereo unspecified) | inconclusive: 56.2 µM [inhibitor, partial curve, poor fit] |  | 
15 | CS(=O)(=O)c1ccc(CN2C[C@@H]3C[C@H]2C(=O)N(Cc2ccc(OC(F)(F)F)cc2)c2ccccc2O3)cc1 | active: 31.6 µM |  | 
16 | CCc1nnc([C@@H]2CC(F)(F)CN2C(=O)c2occc2C)o1 |  | inactive: 1.42% | 
17 | CC(C)N1C[C@H](Oc2ccccc2)[C@@H]1C1CCN(C(=O)c2cccc(C#N)c2)CC1 |  |  | inactive
18 | CCc1nc2c(c(-c3ccc(Cl)cc3)n1)CCN(Cc1ccc(F)cc1)CC2 | inconclusive: 79.4 µM [inhibitor, partial curve, poor fit] |  | 
19 | CCN(C1CCOCC1)C1CN(C(=O)c2ccnn2C)C1 |  |  | inactive
20 | Cc1ccc(N2CCC3(CCCN3Cc3ccc4nsnc4c3)CC2)nn1 | inconclusive: 89.1 µM [inhibitor, single point] |  | 
21 | COc1ccc(-n2nc(C3CCN(C(=O)c4ccc(Cl)nc4)CC3)[nH]c2=O)cc1 |  | inactive: 1.41% | 
22 | O=C(CC[C@@H]1CNC(=O)[C@@H]2C[C@H](NC(=O)Nc3ccccc3)CN12)NCc1ccccc1 |  |  | inactive

Row | SMILES | Potency | activity change, negative = cytotoxicity | outcome
23 | CN1CC(=O)N(C2CCNCC2)Cc2c(NC3CCCCC3)ncnc21 |  | inactive: -10.1% | 
24 | CC1=C[C@@H](CN(C)CCC#N)[C@H](C(C)C)C[C@H]1Cc1nnc(-c2ccc(C)cc2)o1 | active: 50.1 µM |  | 
25 | O=C(NCc1nnc2ccc(-c3ccc(Cl)cc3)nn12)c1cccc2[nH]ccc12 | inconclusive: 89.1 µM [inhibitor, partial curve, poor fit] |  | 
26 | COc1ccc(-c2cc(N3CCN(C(=O)c4cc(C)cc(C)c4)CC3)n[nH]2)cc1 | inconclusive: 56.2 µM [inhibitor, partial curve, poor fit] |  | 
27 | C[S+](=O)([O-])CCn1ncc2cc(OCC3CCN(Cc4cccs4)CC3)ccc21 | inconclusive: 100 µM [inhibitor, partial curve] |  | 
28 | Cc1cc(C)n(CC(=O)N2CCC(c3nc(-c4ccccc4)no3)C2)n1 (stereo unspecified) |  | inactive: -26.1% | 
29 | COc1cccc(-c2c(C(=O)NCC(F)(F)F)nc3sccn23)c1 |  | inactive: -0.48% | 
30 | Cn1nc(-c2ccncc2)cc1NC(=O)C1CC1 |  | inactive: -0.611% [at 172 µM] | 
31 | Oc1ccccc1CNC1(Cc2cc(-c3ccccn3)on2)COC1 | inconclusive: 112 µM [inhibitor, partial curve, poor fit] |  | 
32 | Cn1cc2c3c(cccc31)CN(C(=O)c1ccc(F)cc1Cl)CC2 | inconclusive: 50.1 µM [inhibitor, partial curve, poor fit] |  | 
33 | Cc1ccc(OCC(=O)N2CC(c3nnc(-c4ccc(C)cc4)o3)C3(CCOCC3)C2)cc1 (stereo unspecified) | inconclusive: 79.4 µM [inhibitor, single point] |  | 
34 | Cc1nnc2n1CCC(NC(=O)c1cc(CN3CCOCC3)on1)CC2 (stereo unspecified) | inconclusive: 89.1 µM [inhibitor, single point] |  | 
35 | CC(C)CN1C(=O)c2ccccc2C(C(=O)NC(C)C)C12CCCCC2 (stereo unspecified) | inconclusive: 89.1 µM [inhibitor, single point] |  | 
36 | CNC(=O)c1cccc(-c2cnc(NC(=O)Cc3ccccc3)c3c2CCO3)c1 | inconclusive: 100 µM [inhibitor, partial curve] |  | 
37 | O=C(NCCc1ccccc1)C1CCCN(C2CCN(Cc3ccccc3F)CC2)C1 (stereo unspecified) | inconclusive: 44.7 µM [inhibitor, partial curve] |  | 
38 | O=C(O)c1ccc(CN2CC[C@H](c3nnc(-c4cccnc4)o3)C2)cc1 |  | inactive: 2.17% [at 172 µM] | 
39 | C[C@H]1[C@@H]2[C@@H](O)C([C@H](C)C(=O)NCc3cccs3)CC[C@@]2(C)CC[C@@H]1NC(=O)C1CCCCC1 (stereo partly specified) | inconclusive: 50.1 µM [inhibitor, partial curve, poor fit] |  | 
40 | CCC(C)NC(=O)C(NC(=O)c1ccccc1)C1CCN(C(=O)c2ccc(Cl)cc2)CC1 (stereo unspecified) |  | inactive: -6.15% | 
41 | O=C1C(N2CCN(S(=O)(=O)c3cc(F)cc(F)c3)CC2)CCN1Cc1ccccn1 (stereo unspecified) |  | inactive: -25.2% | 
42 | COc1cccc(NC(=O)c2ccc3c(c2)NC(C)(COc2ccccc2)CO3)c1 (stereo unspecified) | inconclusive: 50.1 µM [inhibitor, full curve, poor fit] |  | 
43 | O=C(Nc1cccc2ccccc12)O[C@@H]1CO[C@H]2[C@@H]1OC[C@@H]2NC(=O)c1cccs1 | inconclusive: 44.7 µM [inhibitor, partial curve, poor fit] |  | 
44 | O=C(Cn1c(=O)oc2ccccc21)N1CC2CC(C1)[C@H]1CCCC(=O)N1C2 (stereo partly specified) |  | inactive: 3.58% | 

Row | SMILES | Potency | activity change, negative = cytotoxicity | outcome
45 | Fc1ccc(Cn2ccnc2-c2ccccn2)c(Cl)c1 | inconclusive: 50.1 µM [inhibitor, partial curve, poor fit] |  | 
46 | CC#CCn1cc2c3c(cccc31)[C@H](CC(C)C)N[C@H](C(=O)NCCN1CCOCC1)C2 | inconclusive: 112 µM [inhibitor, partial curve, poor fit] |  | 
47 | CN(Cc1cccnc1)C(=O)C1CCCCC(=O)N1C (stereo unspecified) |  | inactive: 7.19% | 
48 | Cc1cc(F)ccc1NC(=O)C1CCN(c2cc(C(F)(F)F)ncn2)CC1 | inconclusive: 79.4 µM [inhibitor, partial curve, poor fit] |  | 
49 | CN1CCC(C(=O)N2CCC3(CC2)OC(=O)N(Cc2ccccc2F)C3(C)c2ccccc2)CC1 (stereo unspecified) | inconclusive: 79.4 µM [inhibitor, partial curve, poor fit] |  | 
50 | O=C(NCc1cccnc1)C1CN(S(=O)(=O)c2cccnc2)CC12CCCCC2 (stereo unspecified) |  | inactive: 1.14% | 
51 | COc1ccc(-c2cc(N3CCCC(NC(=O)c4ccc(C#N)cc4)C3)n[nH]2)cc1 (stereo unspecified) | inconclusive: 22.4 µM [inhibitor, full curve, poor fit] |  | 
52 | COc1cccc([S+](=O)([O-])N2CCC3CC(=O)NCCC3C2)c1 (stereo unspecified) |  |  | inactive
53 | CN(C)C(=O)C1CCCN(c2ccnc3ccnn23)C1 (stereo unspecified) |  | inactive: -9.75% [at 172 µM] | 
54 | CC(CNC(=O)c1noc(-c2ccc(F)cc2)n1)c1ccccc1 (stereo unspecified) | inconclusive: 89.1 µM [inhibitor, single point] |  | 
55 | Cc1c(CC(=O)N2CCC(C#N)CC2)c2c(n1Cc1ccccc1)CCCC2=O | inconclusive: 89.1 µM [inhibitor, single point] |  | 
56 | COc1ccc(-c2nc(C3CC(=O)N(c4ccc(F)c(Cl)c4)C3)no2)cc1 (stereo unspecified) |  | inactive: -9.69% | 
57 | Cc1ccc(CNC(=O)CCC2CCCN(S(=O)(=O)c3ccc(F)cc3)C2)cc1 (stereo unspecified) | inconclusive: 50.1 µM [inhibitor, partial curve, poor fit] |  | 
58 | O=C(O)Cn1ccc2cc(OCC3CCN(C(=O)OC4CCCC4)CC3)cnc21 |  |  | inactive [at 172 µM]
59 | Cc1nnc2ccc(N3CCN(C(=O)Cc4ccc(C(F)(F)F)cc4)CC3)nn12 | inconclusive: 15.8 µM [inhibitor, partial curve, poor fit] |  | 
60 | O=C(NC1CCCN(c2ccc3nnc(C4CC4)n3n2)C1)c1ccccc1Cl (stereo unspecified) | inconclusive: 89.1 µM [inhibitor, single point] |  | 
61 | Fc1ccc(-c2nnc3ccc(N4CCN(c5ccccn5)CC4)nn23)nc1 |  | inactive: -6.32% [at 172 µM] | 
62 | Cn1ccc(NC(=O)c2ccc3c(c2)NC(C)(CNCc2ccccc2)CO3)n1 (stereo unspecified) | inconclusive: 126 µM [inhibitor, partial curve, poor fit] |  | 
63 | Cc1ccccc1NC(=O)N1CCC(CCNC(=O)c2ccnn2C)CC1 |  | inactive: -4% | 
64 | Cc1ccccc1CN1CCOc2cc([S+](=O)([O-])Nc3cccnc3)ccc2C1 | inconclusive: 56.2 µM [inhibitor, partial curve, poor fit] |  | 
65 | COCCN1Cc2ccc(NCC(C)C)nc2C(C)(C(=O)Nc2ccccc2)C1 (stereo unspecified) | inconclusive: 50.1 µM [inhibitor, full curve, poor fit] |  | 
66 | O=C(N[C@H]1CO[C@H]2[C@@H]1OC[C@@H]2n1cc(CC2CCCCC2)nn1)c1ccc(C(F)(F)F)cc1 | inconclusive: 31.6 µM [inhibitor, full curve, poor fit] |  | 
